# Data as given in PubChem BioAssay AID504339 (National Center for Advancing Translational Sciences (NCATS), 2011).
# Screen size: about 390,000 compounds; about 17,000 (4.4%) were called active. This list was built around the results that the source calls inconclusive (neither active nor inactive); the mix of calls is not that of the screen. The call rests on the fitted dose curve; in most records, active means well fitted inhibition curve with a large enough effect; inconclusive means small, poorly fitted or top-dose-only effect; inactive means no such curve, though single readings can be large or run the other way. Potencies beside an inconclusive call are fits to weak or partial responses and may not hold up. Some compounds were tested as several samples or in several runs, with calls that do not always agree.
# Biological target: Lysine-specific demethylase 4A (Homo sapiens) (UniProt O75164)
# Test: qHTS Assay for Inhibitors of JMJD2A-Tudor Domain; further: nearly all actives have a fitted effect of over 50% in size
# Settings: AlphaScreen JMJD2A-Tudor / H3K4me3 peptide binding; activity change, negative = inhibition: at 114 µM (top of the series)
# On the % scale 0 is the no-effect control and ±100 the full control effect; potency means the concentration at half of the fitted maximal effect; tags describe the fitted curve by direction and shape.
# Chain of UniProt O75164 (O75164 whole entry, looked up, the tested form may be a part): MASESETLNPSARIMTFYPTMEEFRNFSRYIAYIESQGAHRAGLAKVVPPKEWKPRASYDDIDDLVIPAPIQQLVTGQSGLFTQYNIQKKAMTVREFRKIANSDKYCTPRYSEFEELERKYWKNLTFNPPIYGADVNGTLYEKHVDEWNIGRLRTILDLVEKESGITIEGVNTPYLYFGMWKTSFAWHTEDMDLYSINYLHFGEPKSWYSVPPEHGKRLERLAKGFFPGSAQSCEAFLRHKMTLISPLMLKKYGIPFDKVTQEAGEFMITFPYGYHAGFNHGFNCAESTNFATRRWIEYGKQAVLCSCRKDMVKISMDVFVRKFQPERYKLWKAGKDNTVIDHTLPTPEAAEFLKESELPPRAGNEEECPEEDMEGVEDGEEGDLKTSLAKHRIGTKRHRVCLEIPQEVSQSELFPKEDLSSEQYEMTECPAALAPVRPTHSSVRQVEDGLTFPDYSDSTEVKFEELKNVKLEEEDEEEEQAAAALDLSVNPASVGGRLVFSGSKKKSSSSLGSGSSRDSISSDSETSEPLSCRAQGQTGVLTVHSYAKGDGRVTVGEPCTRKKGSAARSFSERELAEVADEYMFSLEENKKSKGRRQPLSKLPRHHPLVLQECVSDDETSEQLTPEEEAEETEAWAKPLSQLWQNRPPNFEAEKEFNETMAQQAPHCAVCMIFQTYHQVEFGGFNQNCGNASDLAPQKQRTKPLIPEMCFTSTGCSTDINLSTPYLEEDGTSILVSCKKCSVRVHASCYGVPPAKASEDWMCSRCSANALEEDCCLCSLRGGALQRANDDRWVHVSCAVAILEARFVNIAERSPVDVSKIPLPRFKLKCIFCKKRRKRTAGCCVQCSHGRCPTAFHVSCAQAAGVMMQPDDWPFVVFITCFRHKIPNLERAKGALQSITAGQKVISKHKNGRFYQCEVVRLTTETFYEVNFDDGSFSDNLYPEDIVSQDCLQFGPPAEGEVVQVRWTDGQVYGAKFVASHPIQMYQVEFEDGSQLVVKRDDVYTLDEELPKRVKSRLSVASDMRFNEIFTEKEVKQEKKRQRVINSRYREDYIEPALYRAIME
SMILES,Potency,"activity change, negative = inhibition"
COc1cccc(NC(=O)Nc2ccc3nsnc3c2)c1,"inconclusive: 50.1 µM [inhibitor, partial curve]",
S=C(Nc1ccccc1)Nc1nc2ccccc2n1CCOc1ccc(Cl)cc1,"inconclusive: 25.1 µM [inhibitor, single point]",
CCCN(CC(=O)Nc1ccccc1C)C(=O)/C=C/c1cccs1,,inactive: -6.94%
O=C(COC(=O)/C=C/c1ccc(Br)o1)NC1CCCCC1,active: 79.4 µM,
N#Cc1cc2cc3c(cc2nc1SCC(=O)N1CCCC1)OCCO3,,inactive: -11.6%
O=C(O)c1nc2ccccc2nc1C(=O)O,active: 20 µM,
CN(C)c1ccc(C(=O)c2ccc(O)cc2O)cc1,,inactive: -25.2% [at 57.1 µM]
CCc1nnc2c(NCCc3ccc(OC)c(OC)c3)nc3ccccc3n12,active: 31.6 µM,
C#Cc1ccc([C@H]2C=C(C(=O)N3CCN(Cc4ccccc4)CC3)O[C@@H](OCC)[C@@H]2CCCO)cc1,"inconclusive: 56.2 µM [inhibitor, partial curve]",
COc1ccc(NC(=O)c2cc(C3CC3)nc3c2cnn3C(C)C)cc1OC,,inactive: -26.7%
Cc1nn(C2CCS(=O)(=O)C2)c(Cl)c1/C=C/C(=O)OCC(=O)Nc1ccccc1[N+](=O)[O-] (centres undefined),"inconclusive: 25.1 µM [inhibitor, partial curve]",
Cc1ccc2cc(C#N)c(SCC(=O)N3CCCC3)nc2c1,,inactive: 0.352%
COc1ccccc1/C=C/C=N/N1CCN(c2ccccn2)CC1,"inconclusive: 35.5 µM [inhibitor, partial curve]",
O=C(N/N=C/c1cc([N+](=O)[O-])ccc1O)c1ccncc1,active: 22.4 µM,
CC(=O)Nc1ccc(/C(C)=N/Nc2nc(N3CCOCC3)nc(N3CCOCC3)n2)cc1,"inconclusive: 35.5 µM [inhibitor, single point]",
COc1ccc(NC(=O)Nc2ccc3c(c2)C(=O)N([C@H](C)CO)C[C@H](C)[C@@H](CN(C)C(=O)Nc2ccc4c(c2)OCO4)O3)cc1,"inconclusive: 39.8 µM [inhibitor, full curve]",
COc1ccc(CCNCC(=O)Nc2ccc(C)c(S(=O)(=O)N(C)C)c2)cc1,active: 0.794 µM,
COc1ncc(-c2ccc3c(c2)S(=O)(=O)c2cccc(C(=O)O)c2C3=O)cn1,"inconclusive: 20 µM [inhibitor, partial curve]",
COC(=O)CC1C(=O)NCCN1C(=S)NC(=O)c1ccccc1[N+](=O)[O-] (centres undefined),"inconclusive: 89.1 µM [inhibitor, single point]",
Cc1cc(C)cc(NC(=O)CN(C)S(=O)(=O)c2ccc3[nH]c4c(c3c2)CCCC4)c1,"inconclusive: 25.1 µM [inhibitor, full curve, poor fit]",
COc1ccccc1CNC(=O)C(C)n1nc(C)n2c(cc3occc32)c1=O (centres undefined),"inconclusive: 39.8 µM [inhibitor, single point]",
N#C/C(=C\c1ccc(-c2ccc(F)cc2F)o1)c1nc2ccccc2[nH]1,"inconclusive: 39.8 µM [inhibitor, partial curve]",

SMILES,Potency,"activity change, negative = inhibition"
COc1ccc(CNC(=O)COC(=O)c2ccc(OCc3c(C)noc3C)cc2)cc1OC,"inconclusive: 25.1 µM [inhibitor, single point]",
COc1ccc(CNC(=O)c2ccc3[nH]c(C)c(C)c3c2)c(OC)c1,"inconclusive: 89.1 µM [inhibitor, partial curve]",
CCOC(=O)c1c(C)c(C(=O)N2CCN(c3cccc(Cl)c3)CC2)c(C)n1C,"inconclusive: 56.2 µM [inhibitor, partial curve]",
CCSc1ccc([C@@H]2[C@H]3C(=O)N(CC)C(=O)[C@H]3[C@]3(C(=O)OC)CCCCN23)cc1,"inconclusive: 79.4 µM [inhibitor, single point]",
CCN(C(=O)Cn1c(=O)oc2cc(S(=O)(=O)N3CCCC3)ccc21)c1cccc(C)c1,,inactive: -11.1%
CC1(C)CC(=O)c2cnc(N)nc2C1,"inconclusive: 39.8 µM [inhibitor, single point]",
COc1cccc(CNC(=O)C2CCCN(c3ncnc4onc(-c5ccc(F)cc5)c34)C2)c1 (centres undefined),"inconclusive: 89.1 µM [inhibitor, single point]",
Cc1c(C)n(Cc2ccccc2)c2ccc(C(=O)NCCc3ccccc3Cl)cc12,"inconclusive: 56.2 µM [inhibitor, partial curve]",
CCN=C1S/C(=C\c2ccc(-c3cccc(C(=O)O)c3)o2)C(=O)N1CC,"inconclusive: 31.6 µM [inhibitor, single point]",
O=C1CC(c2nc(-c3cccc(Cl)c3)no2)CN1c1ccc2c(c1)OCCO2 (centres undefined),,inactive: -23.7%
Cc1ccc2sc(N(CCCN(C)C)C(=O)CN3C(=O)c4ccccc4C3=O)nc2c1C,,inactive: -35.9%
O=[N+]([O-])c1cccnc1Sc1ccc(F)cc1,"inconclusive: 11.2 µM [inhibitor, full curve]",
COc1ccc(CN2C(=O)c3cccnc3C2Nc2ccc(OC)c(Cl)c2)cc1 (centres undefined),active: 50.1 µM,
CC(C)(C)N/N=C/c1cc(Cl)cc([N+](=O)[O-])c1O,"inconclusive: 63.1 µM [inhibitor, partial curve]",
CCOC(=O)C1CCN(c2ccc([N+](=O)[O-])cc2S(=O)(=O)N2CCOCC2)CC1,,inactive: -12.9%
Cc1ccnc(NC(=O)CCC(=O)c2cccs2)c1,"inconclusive: 50.1 µM [inhibitor, partial curve]",
Nc1nonc1C(=O)N/N=C/c1cc2c(cc1Br)OCO2,"inconclusive: 89.1 µM [inhibitor, partial curve]",
Cc1ncoc1C(=O)N1CCc2c([nH]c3ccccc23)C1c1ccccc1F (centres undefined),"inconclusive: 56.2 µM [inhibitor, partial curve]",
Cc1onc(-c2c(F)cccc2Cl)c1C(=O)N1CCCC1,,inactive: -6.16%
NCCN1CCN(S(=O)(=O)c2ccc([N+](=O)[O-])cc2)C=C1c1ccc(Cl)cc1,"inconclusive: 63.1 µM [inhibitor, partial curve]",
O=[N+]([O-])c1cccnc1Sc1ccccc1Cl,"inconclusive: 35.5 µM [inhibitor, partial curve]",
Cn1c(=O)oc2cc(S(=O)(=O)CCC(=O)Nc3ccccc3)ccc21,,inactive: -6.87%
